# Results as given in the supplement of paper PMC8728848.
# Some of the results follow.
# Columns and labels:
# Experiment in all cases: glycan array binding signal (z-score within array); higher = stronger binding
# Conditions in all cases: glycan notation: IUPAC condensed, linker removed
# [1] = target: Gal(b1-3)GlcNAc(b1-6)[Gal(b1-3)]GalNAc
# Method in brief: (§1)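 The binding signal is a Z-score computed within each array and averaged over linkers. Arrays of the same protein sequence at different concentrations or buffers were also averaged together. Data originate from 3228 arrays in the Consortium for Functional Glycomics database, kept only where the protein sequence was available.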
# Gal(b1-3)GlcNAc6S = target: Gal(b1-3)GlcNAc6S
# Method in brief: as §1
# [2] = target: Gal(b1-3)[Fuc(a1-4)]GlcNAc
# Method in brief: as §1
# [3] = target: Gal(b1-3)[Fuc(a1-4)]GlcNAc(b1-2)Man
# Method in brief: as §1
# [4] = target: Gal(b1-3)[Fuc(a1-4)]GlcNAc(b1-2)Man(a1-3)[Gal(b1-3)[Fuc(a1-4)]GlcNAc(b1-2)Man(a1-6)]Man(b1-4)GlcNAc(b1-4)[Fuc(a1-6)]GlcNAc
# Method in brief: as §1
# [5] = target: Gal(b1-3)[Fuc(a1-4)]GlcNAc(b1-3)Gal(b1-3)[Fuc(a1-4)]GlcNAc
# Method in brief: as §1
# [6] = target: Gal(b1-3)[Fuc(a1-4)]GlcNAc(b1-3)Gal(b1-4)[Fuc(a1-3)]GlcNAc
# Method in brief: as §1
# [7] = target: Gal(b1-3)[Fuc(a1-4)]GlcNAc(b1-6)GalNAc
# Method in brief: as §1
# [8] = target: Gal(b1-3)[GlcNAc(b1-6)]GalNAc
# Method in brief: as §1
# [9] = target: Gal(b1-3)[Neu5Ac(a2-6)]GalNAc
# Method in brief: as §1
# [10] = target: Gal(b1-3)[Neu5Ac(a2-6)]GlcNAc(b1-4)Gal(b1-4)Glc
# Method in brief: as §1
# [11] = target: Gal(b1-3)[Neu5Ac(b2-6)]GalNAc
# Method in brief: as §1
# Gal(b1-4)Gal = target: Gal(b1-4)Gal
# Method in brief: as §1
# [12] = target: Gal(b1-4)GalNAc(a1-3)[Fuc(a1-2)]Gal(b1-4)GlcNAc
# Method in brief: as §1
# [13] = target: Gal(b1-4)GalNAc(b1-3)[Fuc(a1-2)]Gal(b1-4)GlcNAc
# Method in brief: as §1
# Gal(b1-4)Glc = target: Gal(b1-4)Glc
# Method in brief: as §1
# Gal(b1-4)Glc6S = target: Gal(b1-4)Glc6S
# Method in brief: as §1
# Gal(b1-4)GlcNAc = target: Gal(b1-4)GlcNAc
# Method in brief: as §1
# [14] = target: Gal(b1-4)GlcNAc(a1-6)Gal(b1-4)GlcNAc
# Method in brief: as §1
# Gal(b1-4)GlcNAc(b1-2)Man = target: Gal(b1-4)GlcNAc(b1-2)Man
# Method in brief: as §1
# [15] = target: Gal(b1-4)GlcNAc(b1-2)Man(a1-3)Man(b1-4)GlcNAc(b1-4)GlcNAc
# Method in brief: as §1
# [16] = target: Gal(b1-4)GlcNAc(b1-2)Man(a1-3)[Gal(b1-4)GlcNAc(b1-2)Man(a1-6)]Man(b1-4)GlcNAc(b1-4)GlcNAc
# Method in brief: as §1
# [17] = target: Gal(b1-4)GlcNAc(b1-2)Man(a1-3)[Gal(b1-4)GlcNAc(b1-2)Man(a1-6)]Man(b1-4)GlcNAc(b1-4)[Fuc(a1-6)]GlcNAc
# Method in brief: as §1
# [18] = target: Gal(b1-4)GlcNAc(b1-2)Man(a1-3)[Gal(b1-4)GlcNAc(b1-2)Man(a1-6)][Gal(b1-4)GlcNAc(b1-4)]Man(b1-4)GlcNAc(b1-4)[Fuc(a1-6)]GlcNAc
# Method in brief: as §1
# [19] = target: Gal(b1-4)GlcNAc(b1-2)Man(a1-3)[Gal(b1-4)GlcNAc(b1-2)Man(a1-6)][GlcNAc(b1-4)]Man(b1-4)GlcNAc(b1-4)[Fuc(a1-6)]GlcNAc
# Method in brief: as §1
# [20] = target: Gal(b1-4)GlcNAc(b1-2)Man(a1-3)[GlcNAc(b1-2)Man(a1-6)]Man(b1-4)GlcNAc(b1-4)GlcNAc
# Method in brief: as §1
# [21] = target: Gal(b1-4)GlcNAc(b1-2)Man(a1-3)[GlcNAc(b1-4)][Gal(b1-4)GlcNAc(b1-2)Man(a1-6)]Man(b1-4)GlcNAc(b1-4)GlcNAc
# Method in brief: as §1
# [22] = target: Gal(b1-4)GlcNAc(b1-2)Man(a1-3)[Man(a1-6)]Man(b1-4)GlcNAc(b1-4)GlcNAc
# Method in brief: as §1
# [23] = target: Gal(b1-4)GlcNAc(b1-2)Man(a1-6)Man(b1-4)GlcNAc(b1-4)GlcNAc
# Method in brief: as §1
# [24] = target: Gal(b1-4)GlcNAc(b1-2)Man(a1-6)[GlcNAc(b1-2)Man(a1-3)]Man(b1-4)GlcNAc(b1-4)GlcNAc
# Method in brief: as §1
# [25] = target: Gal(b1-4)GlcNAc(b1-2)Man(a1-6)[Man(a1-3)]Man(b1-4)GlcNAc(b1-4)GlcNAc
# Method in brief: as §1
# [26] = target: Gal(b1-4)GlcNAc(b1-2)[Gal(b1-4)GlcNAc(b1-4)]Man(a1-3)[Gal(b1-4)GlcNAc(b1-2)Man(a1-6)]Man(b1-4)GlcNAc(b1-4)GlcNAc
# Method in brief: as §1
# [27] = target: Gal(b1-4)GlcNAc(b1-2)[Gal(b1-4)GlcNAc(b1-4)]Man(a1-3)[Gal(b1-4)GlcNAc(b1-2)[Gal(b1-4)GlcNAc(b1-6)]Man(a1-6)]Man(b1-4)GlcNAc(b1-4)GlcNAc
# Method in brief: as §1
# [28] = target: Gal(b1-4)GlcNAc(b1-2)[Gal(b1-4)GlcNAc(b1-4)]Man(a1-3)[GlcNAc(b1-4)][Gal(b1-4)GlcNAc(b1-2)Man(a1-6)]Man(b1-4)GlcNAc(b1-4)GlcNAc
# Method in brief: as §1
# [29] = target: Gal(b1-4)GlcNAc(b1-2)[Gal(b1-4)GlcNAc(b1-4)]Man(a1-3)[GlcNAc(b1-4)][Gal(b1-4)GlcNAc(b1-2)[Gal(b1-4)GlcNAc(b1-6)]Man(a1-6)]Man(b1-4)GlcNAc(b1-4)GlcNAc
# Method in brief: as §1
# [30] = target: Gal(b1-4)GlcNAc(b1-2)[Gal(b1-4)GlcNAc(b1-6)]Man(a1-6)[Gal(b1-4)GlcNAc(b1-2)Man(a1-3)]Man(b1-4)GlcNAc(b1-4)GlcNAc
# Method in brief: as §1
# [31] = target: Gal(b1-4)GlcNAc(b1-2)[Gal(b1-4)GlcNAc(b1-6)]Man(a1-6)[Gal(b1-4)GlcNAc(b1-2)Man(a1-3)]Man(b1-4)GlcNAc(b1-4)[Fuc(a1-6)]GlcNAc
# Method in brief: as §1
binder,measurement,setting,value
Cohesin-hDC-ASGPR (Homo sapiens) (protein) LDDLDAVRIKVDTVNAKPGDTVRIPVRFSGIPSKGIANCDFVYSYDPNVLEIIEIEPGDIIVDPNPDKSFDTAVYPDRKIIVFLFAEDSGTGAYAITKDGVFATIVAKVKEGAPNGLSVIKFVEVGGFANNDLVEQKTQFFDGGANVGDTTEPATPTTPVTTPTTTDDLDAASQNSKFQRDLVTLRTDFSNFTSNTVAEIQALTSQGSSLEETIASLKAEVEGFKQERQAGVSELQEHTTQKAHLGHCPHCPSVCVPVHSEMLLRVQQLVQDLKKLTCQVATLNNNASTEGTCCPVNWVEHQDSCYWFSHSGMSWAEAEKYCQLKNAHLVVINSREEQNFVQKYLGSAYTWMGLSDPEGAWKWVDGTDYATGFQNWKPGQPDDWQGHGLGGGEDCAHFHPDGRWNDDVCQRPYHWVCEAGLGQTSQESHHHHHH,glycan array binding signal (z-score),[1],-0.272
same,glycan array binding signal (z-score),Gal(b1-3)GlcNAc6S,-0.504
same,glycan array binding signal (z-score),[2],-0.416
same,glycan array binding signal (z-score),[3],-0.419
same,glycan array binding signal (z-score),[4],-0.157
same,glycan array binding signal (z-score),[5],-0.003
same,glycan array binding signal (z-score),[6],-0.436
same,glycan array binding signal (z-score),[7],2.08
same,glycan array binding signal (z-score),[8],0.863
same,glycan array binding signal (z-score),[9],-0.49
same,glycan array binding signal (z-score),[10],-0.513
same,glycan array binding signal (z-score),[11],-0.51
same,glycan array binding signal (z-score),Gal(b1-4)Gal,-0.49
same,glycan array binding signal (z-score),[12],-0.48
same,glycan array binding signal (z-score),[13],-0.392
same,glycan array binding signal (z-score),Gal(b1-4)Glc,-0.433
same,glycan array binding signal (z-score),Gal(b1-4)Glc6S,-0.475
same,glycan array binding signal (z-score),Gal(b1-4)GlcNAc,-0.456
same,glycan array binding signal (z-score),[14],-0.432
same,glycan array binding signal (z-score),Gal(b1-4)GlcNAc(b1-2)Man,2.57
same,glycan array binding signal (z-score),[15],-0.448
same,glycan array binding signal (z-score),[16],-0.447
same,glycan array binding signal (z-score),[17],-0.459
same,glycan array binding signal (z-score),[18],-0.477
same,glycan array binding signal (z-score),[19],-0.522
same,glycan array binding signal (z-score),[20],-0.293
same,glycan array binding signal (z-score),[21],-0.516
same,glycan array binding signal (z-score),[22],0.323
same,glycan array binding signal (z-score),[23],-0.479
same,glycan array binding signal (z-score),[24],0.081
same,glycan array binding signal (z-score),[25],-0.496
same,glycan array binding signal (z-score),[26],-0.523
same,glycan array binding signal (z-score),[27],-0.517
same,glycan array binding signal (z-score),[28],-0.518
same,glycan array binding signal (z-score),[29],-0.508
same,glycan array binding signal (z-score),[30],-0.452
same,glycan array binding signal (z-score),[31],-0.504
